Here are results for 45 sequences from the supplement of paper PMC11417369.

± gives the standard deviation of the averaged measurements. This is one part of the list.

In the assay the test system is PfAP2-EXP AP2 domain (GST-tagged). The assay is described as follows: gcPBM binding intensity (ln(normalized median fluorescence intensity)); higher = stronger DNA binding. Summed up: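 After 1 h on an Agilent 4 × 180k array of primer-extended double-stranded 36-bp intergenic genomic probes and negative controls, bound GST-tagged P. falciparum DNA-binding domains were detected with Alexa488 anti-GST antibody and scanned at 488 nm. The domains had been expressed in E. coli, and binding took place in 1× PBS with 1% milk, 0.2 mg/ml BSA, 0.5% salmon testes DNA and 0.03% Triton X-100. Binding intensity is the highest Masliner-normalised natural-log median intensity across replicate spots of either probe orientation.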
Regarding “TGCTATATTATTATCGCACACCGTTGATTCTAAATA [CACACA_site1207]”, the “gcPBM binding intensity (ln)” value is 8.39 ± 0.29.

For the sequence “CATTTATTTATATACACACACACAAAAAAAAAAAAA [CACACA_site7279]”, the “gcPBM binding intensity (ln)” value is 8.55 ± 0.54.

In the case of “ATAAGTGTATAAAAATGTACGTGTATAAAAATATGT [XGTACX_site8235]”, the “gcPBM binding intensity (ln)” value amounted to 9.04 ± 0.52.

Consider “TTTTTAATTTAAAAAAATAATATTTTATATTCCGAA [CACACA_negctrl_site108]”, for which the “gcPBM binding intensity (ln)” value turned out to be 8 ± 0.21.

“AAATATTTATATATATGTACACATATAATATTTTTA [XGTACX_site2338]”: the “gcPBM binding intensity (ln)” value came to 8.27 ± 0.21.

In the case of “GTAAGCATCAAAAAAGGTACAGAAATTATAAATAAA [XGTACX_site6708]”, the “gcPBM binding intensity (ln)” value was found to be 8.78 ± 0.26.

For “TATTTTTTATTTTTTTGTACATATTTGATAATTAAT [XGTACX_site316]”, the “gcPBM binding intensity (ln)” value was 8.77 ± 0.38.

As for “ATTTCTAATATTTTTGCACACTAAACAATAAATTTC [CACACA_site3943]”, the “gcPBM binding intensity (ln)” value came out at 8.82 ± 0.16.

As to GAAAATTTATTTTTGGTGCATGTATTTATTTATTTT, the “gcPBM binding intensity (ln)” value was 9.06 ± 0.085.

Consider “ATATATGTTATTATTTGTACACACACATATATATCC [XGTACX_site7657]”, for which the “gcPBM binding intensity (ln)” value turned out to be 8.95 ± 0.48.

As for “GTATATAATATTAGTGCACACACAAAAATGTACTAA [CACACA_site8112]”, the “gcPBM binding intensity (ln)” value came to 8.88 ± 0.13.

In the case of “GAAATAATAAATTAAAAATCGTTTATAACATTTAAC [CACACA_negctrl_site425]”, the “gcPBM binding intensity (ln)” value worked out at 8.13 ± 0.38.

As to “ATTTTCTTTCTATGCACACGCACGTATTTGCACCCA [CACACA_site3350]”, the “gcPBM binding intensity (ln)” value was 9.35 ± 0.11.

On to “AGTTTAATATAAAATACACACTACTCTTATAAATAT [CACACA_site6803]”, for which the “gcPBM binding intensity (ln)” value came to 8.27 ± 0.29.

Regarding “CTTTTTTTTTGATGTTGTACATATATATTATATAAT [XGTACX_site1321]”, the “gcPBM binding intensity (ln)” value is 8.77 ± 0.42.

Regarding “AGTAATATAATATAAGCACACGTGTATTTATTTAGT [CACACA_site4246]”, the “gcPBM binding intensity (ln)” value was 8.69 ± 0.35.

Regarding “TCCTTATATTGGCACACACACACAATAAAATGAAAA [CACACA_site4715]”, the “gcPBM binding intensity (ln)” value stood at 8.69 ± 0.4.

For “GGTTGCTTCAGTGAATGTACATAGTGGTAAACAAGC [XGTACX_site166]”, the “gcPBM binding intensity (ln)” value came to 9.26 ± 0.38.

“GTATAAAAGTAATGTAGTACTTATATATTTTTATTT [XGTACX_site8975]”: the “gcPBM binding intensity (ln)” value was determined as 8.18 ± 0.18.

“TGCACATTTATGTAACGTACAAAATATAATATGTTA [XGTACX_site8255]”: the “gcPBM binding intensity (ln)” value was 8.54 ± 0.34.

“TACAAAATAAAAATAATTCTTTCAAAAAATAATAAA [XGTACX_negctrl_site368]”: the “gcPBM binding intensity (ln)” value was found to be 8.04 ± 0.38.

As to “TGGGAGCACAGACACACACACACACCCATATATATA [CACACA_site335]”, the “gcPBM binding intensity (ln)” value turned out to be 8.81 ± 0.26.

Take “ATGTCATATATATGTTGTACGAGTTTGTTTATGTAT [XGTACX_site1150]”: the “gcPBM binding intensity (ln)” value is 9.13 ± 0.57.

For the sequence “AGTTTACATTAAATCACGCACACAAAAAAAAAAAAA [CACACA_site2419]”, the “gcPBM binding intensity (ln)” value was 8.44 ± 0.6.

For the sequence “TTCATTTTATAAAAAGCACACATATAGTTATATGCA [CACACA_site9228]”, the “gcPBM binding intensity (ln)” value turned out to be 8.37 ± 0.26.

Turning to “TACCTTTTTTATGTTGCACACTGGGATGTTTTCTAA [CACACA_site1653]”, the “gcPBM binding intensity (ln)” value was determined as 9.11 ± 0.39.

For “ATTCATATTTTTCAAGTGCGCATTAAAATATTAACC [GTGCAC_site9741]”, the “gcPBM binding intensity (ln)” value amounted to 8.88 ± 0.23.

Turning to “AATATATTTTTTTTTGGTACACAAGCACATCTATAC [XGTACX_site2183]”, the “gcPBM binding intensity (ln)” value came to 8.71 ± 0.52.

Regarding “TTTCGATTATGTTTTTGTACGCAATATATTAATTCT [XGTACX_site3634]”, the “gcPBM binding intensity (ln)” value was 8.65 ± 0.29.

“CCATGATTATTAGATTGTACATAACATACAAATTGA [XGTACX_site314]”: the “gcPBM binding intensity (ln)” value turned out to be 8.33 ± 0.24.

Take “AATGTGCAGAAAAGTGGTACATATGATTGTTAAGAG [XGTACX_site1038]”: the “gcPBM binding intensity (ln)” value came to 9.21 ± 0.32.

As to “AAAAAAAAAAAAACTAGTACATATATATAGTATGAA [XGTACX_site6279]”, the “gcPBM binding intensity (ln)” value stood at 8.34 ± 0.51.

Take “AAAACAAATAAGTAAACACACATATATAATATATAT [CACACA_site2586]”: the “gcPBM binding intensity (ln)” value amounted to 8.64 ± 0.37.

Consider “ATTTATATTTTATATACACACATGAACTTATATGGA [CACACA_site3167]”, for which the “gcPBM binding intensity (ln)” value came to 8.37 ± 0.41.

On to “TTTATTTTTTATATATCACTTAAAAAAAAAAAAAAA [CACACA_negctrl_site249]”, for which the “gcPBM binding intensity (ln)” value stood at 8 ± 0.52.

Regarding “GAATATAAAAGGAACGGTACAGAAAAAAAAAAAAAA [XGTACX_site3917]”, the “gcPBM binding intensity (ln)” value was determined as 8.42 ± 0.75.

On to “ATGTAATATATTATATGTACATATTTTTATGTAGAT [XGTACX_site5945]”, for which the “gcPBM binding intensity (ln)” value was found to be 8.61 ± 0.27.

Regarding “AATATAGTCTCACATACACACATATATATTTATATA [CACACA_site2503]”, the “gcPBM binding intensity (ln)” value worked out at 8.52 ± 0.38.

In the case of “ATAACCTAATAATACACACACATGAATATATATAAT [CACACA_site4689]”, the “gcPBM binding intensity (ln)” value worked out at 8.48 ± 0.34.

As to “CTTTTTTTTTTATGCACACACAATTATACATTCCTT [CACACA_site3877]”, the “gcPBM binding intensity (ln)” value came out at 9.08 ± 0.37.

In the case of “TACGTATTCATGTATAGTACTCTTTTTTTTAATAAA [XGTACX_site3299]”, the “gcPBM binding intensity (ln)” value was 8.51 ± 0.46.

On to “TTATTACGAACTCTGCAACATATATAAATAAATAAA [CACACA_negctrl_site44]”, for which the “gcPBM binding intensity (ln)” value came out at 8.41 ± 0.42.

On to “AAAATAATATTTAATACACACATAATTACAATATAA [CACACA_site6510]”, for which the “gcPBM binding intensity (ln)” value was found to be 8.38 ± 0.42.

“ACAAGTGTATATGTTATATATATATATATATATATA [CACACA_negctrl_site1686]”: the “gcPBM binding intensity (ln)” value was found to be 10.1 ± 0.42.

“AAAGATAAAATATATACACACACATAAATACGTACA [CACACA_site8275]”: the “gcPBM binding intensity (ln)” value was determined as 8.81 ± 0.37.
